{
  "source": "PubChem BioAssay AID686970",
  "about": "(National Center for Advancing Translational Sciences (NCATS), 2013)",
  "note": "The campaign covered roughly 360,000 compounds. About 6,000 (1.7%) were called active. This list was built around the results that the source calls inconclusive (neither active nor inactive); the mix of calls is not that of the screen. The call rests on the fitted dose curve; in most records, active means well fitted cell-killing curve with a large enough effect; inconclusive means small, poorly fitted or top-dose-only effect, or effect the other way; inactive means flat fitted curve, though single readings scatter. Potencies of inconclusive entries are left out as doubtful fits.",
  "data": [
    {"test": "qHTS for induction of synthetic lethality in tumor cells producing 2HG: qHTS for the HT-1080-NT fibrosarcoma cell line;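 further: NT is the 2HG producing partner of a matched IDH1 knockdown line; nearly all actives have a fitted effect of over 55% in size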; further: potency means the concentration at half of the fitted maximal effect; tags describe the fitted curve by direction and shape;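 on activity, negative = less viability: 0% = DMSO-treated cells and -100% = media-only wells without cells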", "details": "HT-1080-NT fibrosarcoma viability, CellTiter-Glo ATP luminescence, 48 h; activity, negative = less viability: at 46.1 µM (top of the series) unless noted", "outline": "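Fibrosarcoma NT cells, 750 per well in 5% FBS RPMI, were exposed to compound for 48 hours. Viability: CellTiter-Glo luminescence.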", "values": [
      {"molecule": "O=C1NC(c2ccccc2)N=C2Oc3ccccc3C=C12", "note": "(centres undefined)", "Potency": "inconclusive [cytotoxic, partial curve]"},
      {"molecule": "CCCc1cnc(N2CCN(C(=S)NC)CC2)nc1", "Potency": "inconclusive [rising, single point]"},
      {"molecule": "Cc1cc(NNC(=O)c2cccc(C(F)(F)F)c2)nc2c1c(C)nn2C", "Potency": "inconclusive [cytotoxic, single point]"},
      {"molecule": "CS(=O)(=O)N(CC(=O)NCCSc1ccccn1)c1cccc2ccccc12", "Potency": "inactive"},
      {"molecule": "CCOc1cc(OCC)cc(C(=O)NCCN2CCC(n3c(=O)[nH]c4ccccc43)CC2)c1", "Potency": "inconclusive [cytotoxic, single point]"},
      {"molecule": "CCC(=O)N1CCN(C(=O)c2ccccc2)CC1", "activity, negative = less viability": "inconclusive: 31%"},
      {"molecule": "CC1(C(=O)NS(=O)(=O)c2ccc(Cl)s2)CCN1C(=O)C1(c2ccc(Cl)cc2)CCC1", "note": "(centres undefined)", "Potency": "inconclusive [cytotoxic, single point]"},
      {"molecule": "CCc1ccc(NC(=O)c2cnn3ccccc23)cc1", "Potency": "inconclusive [cytotoxic, partial curve]"},
      {"molecule": "OCC[C@H]1C[C@@H](O)[C@H](O)[C@@]2(CCCc3ccccc3O2)O1", "Potency": "inconclusive [cytotoxic, single point]"},
      {"molecule": "Cc1cnc(NC(=O)CN(C)S(=O)(=O)c2ccc(Cl)cc2)s1", "Potency": "inconclusive [cytotoxic, single point]"},
      {"molecule": "COc1ccc(C(=O)c2cc(OC)c(OC)c(OC)c2)cc1OC", "Potency": "inconclusive [cytotoxic, partial curve]"},
      {"molecule": "CCCCc1ccc(/C(C)=N/Nc2cc(N3CCOCC3)nc(C)n2)cc1", "Potency": "inconclusive [cytotoxic, single point]"},
      {"molecule": "CCCC(O)(c1ccc(CC)cc1)C(CN1CCOCC1)c1ccccc1", "note": "(centres undefined)", "Potency": "active: 32.6 µM"},
      {"molecule": "N#C/C(=C\\c1cccc(NC(=O)c2ccccc2Cl)c1)C(=O)NCCc1ccccc1", "Potency": "inconclusive [cytotoxic, full curve]"},
      {"molecule": "CNC(=O)c1cc2c(cn1)[nH]c1ccccc12", "Potency": "inconclusive [rising, full curve, poor fit]"},
      {"molecule": "CCOC(=O)C1=C(CN2c3ccccc3CC2C)NC(=O)NC1c1ccccc1", "note": "(centres undefined)", "Potency": "inconclusive [cytotoxic, partial curve]"},
      {"molecule": "O=C(N/N=C/c1cc([N+](=O)[O-])ccc1O)C1CCCCC1", "Potency": "inconclusive [cytotoxic, single point]"},
      {"molecule": "CC(C)C(=O)Nc1cccc(C(=O)OCC(=O)c2ccc(Cl)cc2Cl)c1", "Potency": "inactive"},
      {"molecule": "CC(=O)c1ccc(NC(=O)CN2C(=O)/C(=C/C(C)=C/c3ccccc3)SC2=S)cc1", "Potency": "inactive"},
      {"molecule": "COc1cc(NC(=O)c2cc(-c3cc(F)ccc3OC(C)C)n[nH]2)cc(OC)c1OC", "Potency": "inconclusive [cytotoxic, single point]"},
      {"molecule": "CCOC(=O)c1c(-c2ccccc2)oc2ccc(OCC(O)CNCCN(C)C)cc12", "note": "(centres undefined)", "Potency": "active: 18.4 µM"},
      {"molecule": "CSc1nc2ccc(NC(=O)c3ccccn3)cc2s1", "Potency": "active: 14.6 µM"},
      {"molecule": "CCN(CC)C(=O)c1cccc(-c2csc(C(O)c3cccc(Cl)c3)n2)c1", "note": "(centres undefined)", "Potency": "inconclusive [cytotoxic, partial curve]"},
      {"molecule": "CN(C)c1cc[n+](CC(=O)Nc2ccc(Oc3ccccc3)cc2)cc1", "Potency": "inconclusive [cytotoxic, single point]"},
      {"molecule": "COc1cccc(-c2cc3nc(-c4ccccc4)cc(=O)n3[nH]2)c1", "Potency": "active: 1.46 µM"},
      {"molecule": "CC(=O)CSc1nnc(-c2ccc(S(=O)(=O)N3CCC(C)CC3)cc2)o1", "Potency": "inactive"},
      {"molecule": "NC(Cc1ccc(Cl)cc1)c1csc(Nc2ccc(C(F)(F)F)cn2)n1", "note": "(centres undefined)", "Potency": "inconclusive [cytotoxic, single point]"},
      {"molecule": "CCc1ccc(O)c(N=Cc2ccccc2O)c1", "Potency": "inconclusive [cytotoxic, single point]"},
      {"molecule": "COCCn1cnc2c(c1=O)c1nc3ccccc3nc1n2/N=C/c1ccco1", "Potency": "inactive"},
      {"molecule": "CC(=O)C1C(c2ccc(F)cc2)c2c(noc2C)CC1(C)O", "note": "(centres undefined)", "Potency": "inactive"},
      {"molecule": "CCC(C)Sc1ccc(-c2nc3cc(C)ccn3c2NC2CCCCC2)cc1", "note": "(centres undefined)", "Potency": "active: 20.6 µM"},
      {"molecule": "CCN(CC)CC(=O)Nc1ccc2c(c1)N(C(=O)CN(CC)CC)c1ccccc1CC2", "Potency": "inconclusive [cytotoxic, single point]"},
      {"molecule": "Cc1cc(Nc2ccc([N+](=O)[O-])cc2)c2ccccc2n1", "Potency": "inconclusive [cytotoxic, partial curve]"},
      {"molecule": "CC1(Oc2cccc(F)c2)CCN(Cc2ccc3ccccc3c2)C1", "note": "(centres undefined)", "Potency": "inconclusive [cytotoxic, single point]"},
      {"molecule": "CN(C)CCOc1ccc(-c2c(-c3ccccc3)sc3ccccc23)cc1", "Potency": "inconclusive [cytotoxic, single point]"},
      {"molecule": "O=C1N/C(=C\\c2ccc(N3CCOCC3)c(F)c2)C(=O)N1Cc1ccccc1", "Potency": "inconclusive [cytotoxic, single point]"},
      {"molecule": "COc1ccccc1C(CNC(=O)c1cccc(S(=O)(=O)N2c3ccccc3CC2C)c1)N(C)C", "note": "(centres undefined)", "Potency": "inconclusive [cytotoxic, single point]"},
      {"molecule": "Cc1cc(NC(=O)CN2CCN(c3ccc(O)cc3)CC2)no1", "Potency": "inconclusive [cytotoxic, single point]"},
      {"molecule": "N#C/C(=C\\c1ccc(N2CCOCC2)o1)c1nc2ccccc2[nH]1", "Potency": "inconclusive [cytotoxic, single point]"},
      {"molecule": "CC1=C(C(=O)N2CCCCCC2)CC(CC(=O)NCC2CCCCC2)C(=O)N1Cc1ccccc1", "note": "(centres undefined)", "Potency": "inactive"},
      {"molecule": "O=C(COc1ccccc1Cl)NNC(=O)Cn1[nH]c(=O)c2ccccc2c1=O", "Potency": "inactive"},
      {"molecule": "CC(=O)C1=C(O)C(=O)N(c2ccc(Br)cn2)C1c1ccc(F)cc1", "note": "(centres undefined)", "Potency": "inconclusive [rising, partial curve]"},
      {"molecule": "Cc1nc2ccccc2n1Cc1ccc(Cl)cc1", "Potency": "inconclusive [cytotoxic, full curve]"},
      {"molecule": "FC(F)(F)c1ccccc1Cc1c(C2CCCCC2)nc2ccc(Cl)cn12", "Potency": "inconclusive [cytotoxic, single point]"},
      {"molecule": "Cc1ccc(-c2nn(CC(=O)NCc3cc(-c4nn(C)c(=O)c5ccccc45)ccc3C)c(=O)c3ccccc23)cc1", "Potency": "inconclusive [cytotoxic, single point]"},
      {"molecule": "COc1ccc(NS(=O)(=O)c2ccc(N3CCN(CCO)CC3)c([N+](=O)[O-])c2)cc1", "Potency": "inconclusive [cytotoxic, single point]"},
      {"molecule": "O=c1[nH]c(C2CCN(S(=O)(=O)c3ccccc3C(F)(F)F)CC2)nc2c1nnn2Cc1cccc(F)c1", "Potency": "inconclusive [cytotoxic, single point]"},
      {"molecule": "O=CNc1ccc2c(c1)Cc1cc([N+](=O)[O-])ccc1-2", "Potency": "active: 5.8 µM"},
      {"molecule": "COc1ccc(CN=Cc2[nH]c3ccc(Br)c(Cl)c3c2O)cc1", "Potency": "inconclusive [cytotoxic, single point]"},
      {"molecule": "Cc1ccc(CNC(=O)Cn2nnc(C(=O)Nc3cc(C)ccc3C)c2N)cc1", "Potency": "inconclusive [cytotoxic, partial curve, poor fit]"},
      {"molecule": "Cc1ccc(CN2CCC(Oc3cccc(C(=O)N(C)CCN(C)C)c3)CC2)cc1C", "Potency": "inconclusive [cytotoxic, partial curve]"},
      {"molecule": "Cn1c(-c2cccc(F)c2)nc2c1c(=O)[nH]c(=O)n2Cc1ccccc1", "Potency": "inconclusive [cytotoxic, single point]"},
      {"molecule": "CCCNC(=O)c1cc(Cl)c(NC(=O)C2=CSCCO2)cc1OC", "activity, negative = less viability": "inconclusive: 11%"},
      {"molecule": "Nc1c(C(=O)N/N=C/c2ccc(F)cc2)oc2nc(-c3ccccc3)cc(-c3ccco3)c12", "Potency": "inconclusive [cytotoxic, single point]"},
      {"molecule": "Cc1cccc(N(Cc2cc(=O)[nH]c3ccccc23)C(=O)CCl)c1", "Potency": "active: 20.6 µM"},
      {"molecule": "O=S(=O)(NC1CC(NS(=O)(=O)OCC(Cl)(Cl)Cl)C2CCCCC12)OCC(Cl)(Cl)Cl", "note": "(centres undefined)", "Potency": "inconclusive [cytotoxic, single point]"},
      {"molecule": "O=C(NNc1c2ccccc2nc2ccccc12)c1cc2ccccc2cc1O", "Potency": "inconclusive [cytotoxic, single point]"},
      {"molecule": "O=Cc1cc(Cl)ccc1OCCN1CCC(Cc2ccccc2)CC1", "Potency": "active: 20.6 µM"},
      {"molecule": "CCN(CC(=O)NCc1cccs1)C(=O)c1ccc(-c2ccc(F)cc2)o1", "Potency": "inconclusive [cytotoxic, single point]"},
      {"molecule": "O=C(NCCc1ccccc1)Nc1ccc(Cl)cc1", "Potency": "inactive"},
      {"molecule": "NCCc1c(-c2ccccc2)n(-c2ccccc2)c2ccccc12", "Potency": "active: 14.6 µM"},
      {"molecule": "CCN(CC)CCCNc1nc(-c2ccccc2)nc2ccccc12", "Potency": "inconclusive [cytotoxic, single point]"},
      {"molecule": "CCOCCCNC(=S)NCCCNc1nc2cc3c(cc2cc1C#N)OCO3", "Potency": "inconclusive [cytotoxic, partial curve]"},
      {"molecule": "COC(=O)c1ccc(-c2ncc[nH]2)cc1", "Potency": "inactive"},
      {"molecule": "CCN(C[C@H]1N[C@@](Cc2ccccc2)(C(=O)OC)[C@H]2C(=O)N(C)C(=O)[C@@H]12)C(=O)c1ccc(C(C)(C)C)cc1", "Potency": "inactive"},
      {"molecule": "O=C1NC(Cc2ccccc2)c2nc3ccc(F)cc3c(=O)n2-c2cc3ccccc3cc21", "note": "(centres undefined)", "Potency": "active: 5.8 µM"},
      {"molecule": "CC(=O)Nc1ccc(S(=O)(=O)N(C)c2ccc(OCCOc3ccccc3F)cc2)cc1", "activity, negative = less viability": "inconclusive: -31% [cytotoxic]"},
      {"molecule": "Nc1ncn([C@@H]2O[C@H](CO)[C@@H](O)[C@H]2O)c(=O)n1", "Potency": "active: 1.64 µM"},
      {"molecule": "O=C(OCc1ccccc1)N1CCC2CC1c1ccc(N3CCNCC3)cc12", "note": "(centres undefined)", "activity, negative = less viability": "inconclusive: -30.8% [cytotoxic]"}
    ]}
  ]
}
